# According to paper PMC4336329 (PLoS ONE, 2015):
# Screen size: about 310,000 compounds; about 14,000 (4.5%) showed an effect of 50% or more. Effects have a minus sign here. The list shows a part of the results.
# Target: human ether-à-go-go-related gene (hERG) potassium channel (human, UniProt Q12809)
# Assay: primary screen, population patch clamp on CHO cells stably expressing hERG
# 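Note: peak tail current of the secondary pulse compared with the same well before compound.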
# Sequence of human ether-à-go-go-related gene (hERG) potassium channel (Q12809 whole entry, looked up): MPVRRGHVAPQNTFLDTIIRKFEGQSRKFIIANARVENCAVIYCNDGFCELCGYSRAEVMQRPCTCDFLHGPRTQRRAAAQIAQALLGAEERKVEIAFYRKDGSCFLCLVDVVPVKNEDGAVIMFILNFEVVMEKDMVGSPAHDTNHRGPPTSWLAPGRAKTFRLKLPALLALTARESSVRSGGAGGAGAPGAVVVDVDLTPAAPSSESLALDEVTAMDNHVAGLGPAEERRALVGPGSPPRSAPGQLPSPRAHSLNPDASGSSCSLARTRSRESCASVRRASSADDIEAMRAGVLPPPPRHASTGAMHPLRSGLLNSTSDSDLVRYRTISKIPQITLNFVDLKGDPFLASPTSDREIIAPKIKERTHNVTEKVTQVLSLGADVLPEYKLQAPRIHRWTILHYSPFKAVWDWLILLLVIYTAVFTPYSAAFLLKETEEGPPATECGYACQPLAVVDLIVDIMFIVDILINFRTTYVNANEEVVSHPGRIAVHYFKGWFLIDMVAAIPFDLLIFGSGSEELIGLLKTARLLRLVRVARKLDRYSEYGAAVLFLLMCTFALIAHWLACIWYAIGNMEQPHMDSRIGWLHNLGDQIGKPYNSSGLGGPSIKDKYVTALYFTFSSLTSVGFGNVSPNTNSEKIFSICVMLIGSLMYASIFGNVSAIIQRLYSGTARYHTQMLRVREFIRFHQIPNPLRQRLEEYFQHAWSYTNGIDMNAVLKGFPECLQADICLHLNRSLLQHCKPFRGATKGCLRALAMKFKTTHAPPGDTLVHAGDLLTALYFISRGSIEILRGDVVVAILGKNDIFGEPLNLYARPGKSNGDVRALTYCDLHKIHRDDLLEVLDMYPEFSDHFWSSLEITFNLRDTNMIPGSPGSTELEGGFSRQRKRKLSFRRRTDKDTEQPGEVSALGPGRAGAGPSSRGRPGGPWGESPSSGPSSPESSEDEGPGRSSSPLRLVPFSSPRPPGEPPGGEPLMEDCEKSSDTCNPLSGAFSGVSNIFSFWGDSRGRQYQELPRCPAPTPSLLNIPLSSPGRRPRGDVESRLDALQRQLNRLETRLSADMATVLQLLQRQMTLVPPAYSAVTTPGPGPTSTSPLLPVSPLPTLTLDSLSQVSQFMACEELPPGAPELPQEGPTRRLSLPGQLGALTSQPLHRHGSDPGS
row,Structure (SMILES),"hERG current change (%, negative = inhibition) at 10uM [%]"
1,O=C(Nc1ccc(C2SCCS2)cc1)c1ccccc1,1.04
2,O=C(CO)N/N=C/c1ccccc1F,19.1
3,CCc1nc2ccc(C(=O)N3CCN(c4ccc(Cl)cc4)CC3)cc2nc1CC,-6.46
4,CCOc1ccc(CNC(=O)CCCn2ccc3cc(S(=O)(=O)N4CCCC4)ccc32)cc1,-32.7
5,N#Cc1cccc(NC(=O)C2SC(=Nc3ccccc3)C(C(=O)N3CCOCC3)=C2N)c1 (stereo not drawn),-39.4
6,CCCC1CCC(c2ccc(/C(N)=N/O)cc2)CC1 (stereo not drawn),8.2
7,CNS(=O)(=O)c1ccc(N=Cc2c(O)n(-c3ccccc3)c(=O)[nH]c2=O)cc1,12.6
8,Clc1ccc(-c2nnc(-c3ccccc3)c(-c3c[nH]c4ccccc34)n2)cc1,12.7
9,Cc1ccccc1S(=O)(=O)Cc1ccc(C(=O)NC2CCCCC2C)o1 (stereo not drawn),-16.1
10,COc1ccc(OC)c(S(=O)(=O)NCc2cn3ccsc3n2)c1,-0.816
11,COc1ccc2oc(C(=O)OCC(=O)N(C)CC(=O)Nc3ccc(C)cc3)c(C)c2c1,-25.8
12,COc1cc(/C=N/NC(=O)c2cc(C)oc2C)ccc1O,10.8
13,COc1ccc(C(=O)C2CC2c2ccc3c(c2)OCO3)cc1 (stereo not drawn),-20.8
14,O=C(O)c1nn(CCOc2c(Cl)cccc2Cl)c(=O)c2ccccc12,11.8
15,Cc1cc(C)c(OCCN2CC(C)OC(C)C2)c(Br)c1.O=C(O)C(=O)O (stereo not drawn),-17.5
16,CN(c1ccccc1)S(=O)(=O)c1cccc(C(=O)OCC(=O)NCc2ccc3c(c2)OCO3)c1,-12.5
17,CC1(C)Cc2c(C#N)c(N3CCOCC3)nc(Cc3ccccc3)c2CO1,-4.34
18,Cc1ccc(-n2c(O)c(C=Nc3cc(C)on3)c3ccccc3c2=O)c(C)c1,0.0307
19,COc1ccc(NC(=O)Cn2cnc3c(nnn3-c3ccc(C)cc3)c2=O)cc1,18.4
20,CCNC(=S)NC1CC2CCCC(C1)N2Cc1ccco1 (stereo not drawn),-19.1
21,Cc1ccc(CNS(=O)(=O)c2c(C)[nH]c(=O)[nH]c2=O)cc1,10.5
22,O=c1c2c(nc3c(-c4ccccc4)c[nH]n13)CCC2,10.9

row,Structure (SMILES),"hERG current change (%, negative = inhibition) at 10uM [%]"
1,CC(C)[C@@H](C(=O)N[C@@H](Cc1ccccc1)C(=O)O)N1C(=O)N2CCc3c([nH]c4ccccc34)[C@@]2(C)C1=O,-1.5
2,CC(=O)Nc1ccc(NC(=O)C(C)OC(=O)c2ccc(-n3cnnn3)cc2)cc1 (stereo not drawn),2.03
3,CCC(=O)NC(c1ccccc1)c1nc2ccccc2[nH]1 (stereo not drawn),17.1
4,CCNc1nc(NC(C)C)nc(Oc2ccc(=O)n(C)n2)n1,16.6
5,Cc1ccc2[nH]c(=O)c(CN(CC3CCCO3)C(=S)NCc3ccco3)cc2c1 (stereo not drawn),-8.49
6,Cc1ccccc1NC(=O)c1ccc(-c2ccc(Cl)cc2Cl)o1,-1.75
7,CC(C)n1cc(-c2ccc(Cl)cc2)cc(C#N)c1=O,8.72
8,O=C(/C=C/c1ccc(Cl)c(Cl)c1)NCc1ccco1,-14.1
9,CCN1CCN(CC(=O)Nc2cc(C(F)(F)F)ccc2OCCOC)CC1.O=C(O)C(=O)O,-75.4
10,CCOC(=O)Cn1c(=O)oc2cc(S(=O)(=O)Nc3ccc(F)cc3)ccc21,-13
11,Cc1ccc(NCc2nnc(SCC(=O)N(Cc3ccccc3)C(C)(C)C)o2)c(C)c1,-9.53
12,CCOc1ccc2c(c1)-c1c(ssc1=S)C(C)(C)N2,4.44
13,CC(C)(Oc1ccc(Cl)cc1)C(=O)NC1CCSC1=O (stereo not drawn),-10.8
14,C=CCn1c(O)c(N=NC(=O)CNC(=O)c2ccncc2)c2ccccc21,-11.2
15,Cc1ccccc1N(CC(N)=O)S(C)(=O)=O,11.3
16,Cc1cc2c(cc1C)NC(CC(=O)NCc1ccccc1)C(=O)N2 (stereo not drawn),0.987
17,Cc1ccc(C(=O)Nc2ccsc2C(=O)O)cc1,21.4
18,CCOc1ccc2cc(S(=O)(=O)N3CCOCC3)ccc2c1,-0.497
19,CC(=O)N1CCC(N(CCN2CCOCC2)C(=S)Nc2cccc(C)c2)CC1,0.988
20,C=CCN(c1ccccc1)S(=O)(=O)c1ccc2c(c1)N(C(C)=O)CCO2,-3.05
21,COc1cc(CNC(=O)c2nc(Cn3nc(C)c(Br)c3C)no2)cc(OC)c1,-16.2
22,CCN(CC)C(=O)c1cnn(-c2ccccc2)c1NC(=O)c1ccccc1F,-3.32

row,Structure (SMILES),"hERG current change (%, negative = inhibition) at 10uM [%]"
1,Cc1nn(-c2ccccc2)c(/N=C/c2ccc(O)cc2)c1-c1ccccc1,-1.49
2,C=CCn1cc(-c2ccccc2)cc(C#N)c1=O,9.02
3,Cc1ccc(NC(=O)CNc2cc(S(=O)(=O)N3CCOCC3)ccc2NCC2CCCO2)cc1F (stereo not drawn),-7.18
4,CCCC(=O)N1CC(=O)Nc2ccc(C)cc2C1c1ccc(F)cc1 (stereo not drawn),0.427
5,COc1ccc(C(C)=O)cc1COC(=O)Cn1cnc2ccccc2c1=O,-1.2
6,CCOC(=O)c1c(N)sc(-c2ccccc2)c1C,7.12
7,O=C(Cn1nnc2c(cnn2-c2ccccc2)c1=O)NCc1cccs1,2.04
8,O=C(NCc1ccc(Cl)cc1)C(=O)Nc1nccs1,20.7
9,Fc1cccc(-c2oncc2-c2nnnn2-c2ccc(Cl)cc2)c1,-13.9
10,COc1ccc(-c2noc(CSc3nc4ccccc4c(=O)n3-c3ccc(C)cc3)n2)cc1,11.5
11,Cc1cc(/C=N/NC(=O)c2ccncc2)c(C)n1-c1cccc(C(F)(F)F)c1,-3.21
12,CCCCCSc1nc2c(c(=O)[nH]c(=O)n2C)n1C,-2.12
13,Cn1ccc2c([N+](=O)[O-])cccc2c1=O,1.44
14,Cc1nn(CC(=O)OCC(=O)Nc2c(C(C)C)cccc2C(C)C)c(C)c1[N+](=O)[O-],4.75
15,CN1CCN(C(=O)c2cnn(-c3ccccc3)c2NC(=O)c2ccc(Br)cc2)CC1,-81.4
16,COc1ccc(C(=O)C2CCCN(C3CSCCSC3)C2)c(OC)c1 (stereo not drawn),-43.6
17,Cc1ccc(CN2C(=O)CSC2c2cccnc2)cc1 (stereo not drawn),-6.2
18,C/C(=N/NC(=O)c1sc(NS(=O)(=O)c2ccc(C)cc2)nc1C)c1sc(N)nc1C,13.7
19,COc1ccc(C(=O)Nc2cc(C)c3c(=O)oc4ccccc4c3n2)cc1,7.49
20,COc1ccc(OCC(=O)Nc2cc(C)c(Cl)cc2OC)c([N+](=O)[O-])c1,10.7
21,CC(C)NC(=O)c1ccc2c(c1)N(CC(=O)Nc1ccccc1F)C(=O)C(C)(C)O2,15.2
22,COc1ccc(/C=C(\C#N)C(=O)OC2CCOC2=O)cc1 (stereo not drawn),-2.05

row,Structure (SMILES),"hERG current change (%, negative = inhibition) at 10uM [%]"
1,O=C(NCC1CCCO1)/C(=C/c1ccc(Cl)cc1)NC(=O)c1ccccc1 (stereo not drawn),2.01
2,C[N+]1(CCCCSc2ccc(O)cc2)CCCCC1.[I-],-51.7
3,COC(=O)/C(=C\c1ccc([N+](=O)[O-])o1)NC(=O)c1ccccc1,-15
4,Cc1ccc(NC(=O)C(=O)NCCN2CCN(Cc3ccc([N+](=O)[O-])cc3)CC2)cc1,-72.8
5,CCOC(=O)COc1nc(C)cc(C(F)(F)F)c1C#N,4.13
6,Cc1ccc(-c2c(NCCc3ccccc3)c(=O)c2=O)cc1,23.3
7,Cc1ccc2cc3cc(C(=O)NCCCN4CCCC4)oc3nc2c1,-15.5
8,O=C(CNC(=O)C1COc2ccccc2O1)N/N=C/c1ccc(O)cc1O (stereo not drawn),-8.06
9,COc1ccc(F)cc1C(=O)C1CCCN(C(=O)c2ocnc2C)C1 (stereo not drawn),-10.1
10,Cc1cc(O)c(Oc2cc(C)cc(O)c2O)c(O)c1,17
11,CCC(=O)Nc1nnc(SCc2ccc(F)cc2)s1,1.16
12,C[C@H]1C/C=C/[C@H]2[C@H](O)[C@H](C)[C@@](C)(O)[C@H]3[C@H](Cc4ccccc4)NC(=O)[C@]32[C@H](O)/C=C/[C@](C)(O)C1,20.4
13,Cc1ccc(C(C)C)c(OCCSc2nc3ccccc3n2CC(=O)O)c1,11.1
14,O=C(Nc1ccccc1)N1CCN(Cc2ccccc2)CC1.O=C(O)C(=O)O,11.9
15,CC1=C(C(=O)NC2CCCc3c2cnn3-c2cc(F)cc(F)c2)OCCO1 (stereo not drawn),-7.64
16,Cn1nnnc1SCc1nnc(-c2ccc(Cl)cc2)o1,-4.53
17,Cn1c(=O)cc(SCC(=O)NCc2ccco2)c2ccccc21,8.51
18,Cc1cc2sc(C(=O)O)c(C)c2s1,-2.64
19,COc1ccc2c(c1)C(=O)N(c1ccccc1OC)C(=O)C2(C)C,-7.4
20,CC1CN(C(=O)c2cc(S(=O)(=O)N(C)c3ccc(F)cc3)ccc2Cl)CC(C)O1 (stereo not drawn),-10.5
21,Cc1[nH]c2ccccc2c1C(=O)CSc1nc2cc(S(=O)(=O)N3CCCCC3)ccc2o1,14.8
